What all share (assay): co-IP; extracts of HeLa cells overexpressing EGFP or EGFP-tagged p31^comet constructs (adenovirus); NP-40 lysis buffer (50 mM Hepes pH 7.4, 250 mM NaCl, 1% NP-40); anti-GFP antibody on agarose beads, 4 h at 4°C; western blotting with anti-Mad2 and anti-GFP antibodies
Test [1] concerns the target T1, EGFP-tagged p31^comet fragment D (108-274) (human) (UniProt Q15013).
T1 sequence: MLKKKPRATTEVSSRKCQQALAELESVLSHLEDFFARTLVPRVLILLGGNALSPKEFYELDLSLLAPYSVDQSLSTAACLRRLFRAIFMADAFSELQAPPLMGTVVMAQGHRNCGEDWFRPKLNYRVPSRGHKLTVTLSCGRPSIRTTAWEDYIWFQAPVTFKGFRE

Chains of the proteins cited; added tags and fusions are not shown.
UniProt Q13257: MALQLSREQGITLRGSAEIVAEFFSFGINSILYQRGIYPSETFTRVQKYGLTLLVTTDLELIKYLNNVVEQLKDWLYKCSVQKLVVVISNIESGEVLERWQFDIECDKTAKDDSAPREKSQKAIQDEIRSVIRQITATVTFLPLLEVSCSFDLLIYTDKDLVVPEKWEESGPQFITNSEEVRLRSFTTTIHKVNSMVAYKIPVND

Test [2] deals with T2, EGFP-tagged full-length p31^comet (human) (UniProt Q15013).
T2 sequence: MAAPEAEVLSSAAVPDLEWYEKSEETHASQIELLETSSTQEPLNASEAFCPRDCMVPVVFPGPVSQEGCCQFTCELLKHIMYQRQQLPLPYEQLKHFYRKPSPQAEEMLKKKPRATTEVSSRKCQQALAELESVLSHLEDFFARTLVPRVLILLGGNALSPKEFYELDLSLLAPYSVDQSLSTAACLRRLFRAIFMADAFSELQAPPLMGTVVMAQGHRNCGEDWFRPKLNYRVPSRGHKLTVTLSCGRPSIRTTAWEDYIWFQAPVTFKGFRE

For test [3], the target named is T3, EGFP-tagged p31^comet fragment B (55-274) (human) (UniProt Q15013).
T3 sequence: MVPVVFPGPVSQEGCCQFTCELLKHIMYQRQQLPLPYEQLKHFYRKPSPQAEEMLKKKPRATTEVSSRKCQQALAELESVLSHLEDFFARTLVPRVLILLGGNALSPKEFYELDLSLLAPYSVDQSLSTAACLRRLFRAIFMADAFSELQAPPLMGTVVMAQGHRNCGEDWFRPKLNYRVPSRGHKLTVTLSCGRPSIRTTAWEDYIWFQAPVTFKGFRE

Test [4] addresses T4, EGFP-tagged p31^comet fragment A (31-274) (human) (UniProt Q15013).
T4 sequence: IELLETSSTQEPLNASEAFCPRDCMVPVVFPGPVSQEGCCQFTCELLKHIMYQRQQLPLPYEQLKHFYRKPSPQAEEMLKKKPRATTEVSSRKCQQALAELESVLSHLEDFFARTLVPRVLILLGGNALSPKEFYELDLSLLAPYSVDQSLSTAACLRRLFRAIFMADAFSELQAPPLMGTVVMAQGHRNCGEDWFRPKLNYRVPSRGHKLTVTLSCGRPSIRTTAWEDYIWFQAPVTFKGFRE

In test [5] the target is T5, EGFP-tagged p31^comet fragment C (81-274) (human) (UniProt Q15013).
T5 sequence: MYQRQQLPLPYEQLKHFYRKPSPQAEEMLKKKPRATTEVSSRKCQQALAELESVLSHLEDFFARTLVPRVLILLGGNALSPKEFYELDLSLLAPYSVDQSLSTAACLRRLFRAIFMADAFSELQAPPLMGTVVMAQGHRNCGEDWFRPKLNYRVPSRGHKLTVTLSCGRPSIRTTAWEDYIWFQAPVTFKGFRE

Results are given in words; binding and its absence hold for the method and conditions named. In cells and extracts the contact can be indirect. Some binding calls cover weakened binding; strength is not graded here. Where a sequence is shown, tags or fusion partners need not be part of it.

Consider “Mad2 protein (from UniProt Q13257 1-205)”, for which the binding entry in test [1] is given as “no binding”; in test [2], “binds”; in test [3], “binds”; in test [4], “binds”; in test [5] it was “no binding”.
